52 molecules from PubChem BioAssay AID1346428 (National Center for Advancing Translational Sciences (NCATS), 2018) can be followed below.

Each structure is given as a SMILES string. The whole screen tested about 48,000 compounds, of which about 1,200 (2.5%) were called active. Not shown: some 2% with an inconclusive outcome.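 How the source made its calls: active means activation of at least 60% and not above a set upper limit (about 1 call in 100 departs from these limits); inconclusive means activation of 40% to 60%, or above that upper limit; inactive means activation under 40%.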 This is one part of the list.

UniProt O75388, sequence (O75388 whole entry, looked up): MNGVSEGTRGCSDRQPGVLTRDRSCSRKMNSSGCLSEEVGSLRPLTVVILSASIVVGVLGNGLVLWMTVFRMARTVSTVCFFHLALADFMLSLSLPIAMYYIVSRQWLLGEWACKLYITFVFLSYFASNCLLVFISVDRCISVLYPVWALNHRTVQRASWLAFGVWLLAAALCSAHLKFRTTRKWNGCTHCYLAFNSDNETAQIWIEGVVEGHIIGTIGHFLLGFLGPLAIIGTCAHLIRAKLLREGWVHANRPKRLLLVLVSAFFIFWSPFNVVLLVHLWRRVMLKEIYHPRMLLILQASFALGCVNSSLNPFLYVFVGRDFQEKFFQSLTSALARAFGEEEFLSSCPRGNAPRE

The target in this assay is Probable G-protein coupled receptor 32 (Homo sapiens) (UniProt O75388). The experiment in a line: qHTS for Agonists of Human Resolvin D1 Receptor DRV1. As to conditions: CHO-K1 GPR32 beta-arrestin PathHunter luminescence, 90 min; at 76.9 µM; active compounds read high; zero percent set by DMSO-only wells. An excerpt:
Endogenous resolution of inflammation is known to be transduced through various GPCRs and their natural mediators of lipid nature. Resolvin D1 (RvD1) is one of the active players in resolution of acute inflammation through regulation of anti-inflammatory pathways; it is known to enhance phagocytosis of human macrophages, limits neutrophils infiltration, etc. […] The search for GPR32-activating small molecules with anti-inflammatory effects similar to its natural omega-3 derivative ligand in order to use them as research tools for further studies of inflammation and its resolution was the goal of this screening project. For primary screening assay, we used CHO-K1 GPR32 beta-arrestin cell line (DiscoveRx, #93-0321C2A) and the PathHunter(R) beta-Arrestin Assay (DiscoveRx) which measures recruitment of beta-arrestin to the GPR32 and generates chemiluminescent signal. These engineered cells stably transfected with GPR32 co-express GPR32-fused small 42-amino acid fragment of beta-Gal called ProLinktrade mark, and […] -tagged beta-Arrestin fusion protein. When GPR32 is activated by a ligand, it stimulates binding of beta -Arrestin to ProLink-tagged GPR32, and two parts of beta-Gal complement forming a functional enzyme. Upon substrate (PathHunter(R) Detection reagent) addition, beta-Gal hydrolyzes it and generates a chemiluminescent signal.
The cells were thawed and plated in thawing media containing F-12 HAM (Invitrogen, #11765-054), 10% FBS (Invitrogen, #10082), 1x Glutamine, and 1x Pen/Strep onto the 175-mm flask for 24 hours. Then, thawing media was replaced with Growth media which contains 800microg/mL Geneticin (Invitrogen, #10131) and 300microg/mL Hygromycin B (Invitrogen, #10687) in addition to described above. For the assay, the cells were harvested at ~80% confluent stage with Cell Dissociation buffer (Gibco, #13151), and seeded at 2,500 cells/ 3microL/well in assay media (PathHunter(R) Cell Plating Reagent, DiscoverX, #93-0563R1B) using MultiDrop Combi dispenser (Thermo Scientific, Logan, UT) onto white solid bottom tissue culture-treated 1536-well plates (Greiner # 789173-F) and allowed to attach overnight at 37 degrees C, 95% humidity, 5% CO2, . Next, 23nL/well of compound solutions in DMSO were added with a Pin Tool (Kalypsis, San Diego, CA) to the assay plates. As the basal control (EC0), 23 nL/well of DMSO was used on each plate. The cells were incubated in the presence of compounds or DMSO for 90 minutes at 37 degrees C, 5% CO2. Subsequently, 1.5microL/well of PathHunter(R) Detection Reagent prepared per the manufacturer's instructions was added to the assay plates with BioRAPTR FRDtrade mark dispenser (Beckman Coulter, San Francisco, CA) and incubated for 1 hour at ambient temperature prior to the measurement of the luminescent signal on ViewLux(R) uHTS Microplate Imager (Perkin Elmer, Waltham, MA).
Regarding `COc1ccc(S(=O)(=O)n2nc(C)c(S(=O)(=O)N3CCC(C)CC3)c2C)cc1C`, the activation is inactive: -12.2%.

Regarding `O=C1NCCN(Cc2ccc(F)cc2)C1=O`, the activation was inactive: 9.71%.

For the molecule `Cc1cccc(C)c1NC(=O)CSc1nc(-c2ccccc2)nc2c1Cc1c(CO)cnc(C)c1O2`, the activation was inactive: -15.7%.

`CCCn1c(SCc2nc(-c3ccc(OC)cc3OC)no2)nnc1-c1ccc(Cl)cc1`: the activation was inactive: -6.69%.

Consider `CCC1CN(C(=O)N2CCC(C(=O)NCCc3ccc(Cl)cc3)CC2)c2ccccc2O1` (configuration not stated), for which the activation was inactive: -14.9%.

Regarding `CCN(CC)c1ccc(NS(=O)(=O)c2ccc(-c3cnc(C4CC4)o3)cc2)c(C)c1`, the activation was inactive: -18.7%.

`COc1ccc(-c2noc(CN(C(=O)COc3cc(C)c(Br)c(C)c3)C(C)C)n2)cc1`: the activation is inactive: 3.48%.

Take `Cn1c(SCc2ccc(F)cc2)nc2ccc(C(=O)NCc3ccc(Cl)cc3)cc21`: the activation was inactive: -2.39%.

In the case of `COc1ccc(NC(=O)Cn2nnc(C(=O)Nc3ccc(F)c(Cl)c3)c2N)cc1OC`, the activation was inactive: -11.6%.

Regarding `Cc1ccc(NC(=O)Cn2cc(C(=O)C3CC3)c3ccccc32)cc1`, the activation was inactive: -1.93%.

As to `COC(=O)c1scc(-c2ccc(C)cc2)c1S(=O)(=O)Nc1cc(Cl)ccc1C`, the activation was inactive: -25.1%.

In the case of `Cn1c(=O)c(=O)n(C)c2cc(N3CCOCC3)c(NS(=O)(=O)c3ccc(Cl)cc3)cc21`, the activation was inactive: -5.58%.

Turning to `CCOC(=O)c1[nH]c2c(c1Cc1ccccc1)C(=O)CC(c1ccc(Cl)cc1)C2` (configuration not stated), the activation is inactive: -17.5%.

As to `CCc1ccc(S(=O)(=O)c2cn(CC(=O)Nc3ccc(C)cc3)c3ccccc3c2=O)cc1`, the activation was inactive: -19.2%.

With `CCOc1ccccc1NC(=O)c1sc2nc3n(c(=O)c2c1C)CCCCC3`, the activation was inactive: 2.79%.

Turning to `COCCOC(=O)c1c(C)n(S(=O)(=O)c2ccc(C)cc2)c2ccc(NS(=O)(=O)c3ccc(C)cc3)cc12`, the activation is inactive: -7.98%.

For the molecule `CCOC(=O)c1ccc(NC(=O)c2c(NC(C)=O)sc3c2CCC(C)C3)cc1` (configuration not stated), the activation is inactive: -30.3%.

On to `CCOc1ccc(CCNC(=O)c2ccc3c(Cl)c4c(nc3c2)CCCC4)cc1`, for which the activation was inactive: -4.39%.

On to `O=S(=O)(NCCc1nnc2ccc(SCc3ccc(Cl)cc3Cl)nn12)c1ccccc1`, for which the activation is inactive: 0.218%.

In the case of `COc1cccc(C(c2sc3nc(-c4ccco4)nn3c2O)N2CCC(O)CC2)c1` (configuration not stated), the activation is inactive: 3.61%.

As for `Cc1c2cnn(-c3ccccc3)c(=O)c2c(C)n1CCCC(=O)Nc1cc(F)ccc1F`, the activation is inactive: -15.2%.

Turning to `Cc1cccc(C)c1NC(=O)C(NS(=O)(=O)c1ccc2c(c1)CCC(=O)N2)c1ccccc1` (configuration not stated), the activation was inactive: -3.38%.

Regarding `COC(=O)c1nc2n(n1)C(c1cccc(Cl)c1)C(C(=O)Nc1ccccc1OC)=C(C)N2` (configuration not stated), the activation is inactive: -29.3%.

For the molecule `COc1ccc(N2CCN(S(=O)(=O)c3ccc4oc(=O)c5ncn(C)c5c4c3)CC2)cc1`, the activation was inactive: 14.5%.

For `COc1ccc(-c2nc3sc(CCNC(=O)c4cc(OC)c(OC)c(OC)c4)c(C)n3n2)cc1`, the activation was inactive: 9.26%.

Turning to `CCOc1ccc(NC(=O)CSc2ncc3c(n2)-c2ccc(Cl)cc2N(Cc2ccccc2)S3(=O)=O)cc1`, the activation is inactive: 19.3%.

For `O=C(CSC1=Nc2ccccc2C2=NC(CC(=O)NC3CCCCC3)C(=O)N12)Nc1ccc(F)cc1` (configuration not stated), the activation was inactive: -31.1%.

In the case of `CCN(c1cccc(C)c1)S(=O)(=O)c1nnc(NC(=O)C2CCCCC2)s1`, the activation was inactive: -20.9%.

With `O=C(CSc1nc2ccccc2nc1Cc1ccc(Cl)cc1)N1CCc2ccccc21`, the activation is inactive: -18.8%.

With `CCc1ccc(CNC(=O)CN2C(=O)c3cccnc3Oc3ccc(Cl)cc32)cc1`, the activation is inactive: -12.7%.

`Cc1ccc(-c2nc(C)c(CCNC(=O)c3ccco3)s2)cc1`: the activation was inactive: 28.8%.

Regarding `Cc1ccc(C)c(N2CCN(S(=O)(=O)c3cc(Br)cc4c3N(C(=O)C3CC3)CC4)CC2)c1`, the activation was inactive: -14.6%.

Take `COc1ccc(C)cc1NC(=O)c1oc2ccc(S(=O)(=O)N3CCCCC3)cc2c1C`: the activation was inactive: -1.32%.

As for `CCOc1ccc(C2c3[nH]c4ccccc4c3CCN2C(=O)CCc2ccccc2)cc1` (configuration not stated), the activation is inactive: -37.9%.

For the molecule `CCOC(=O)c1ccc(NC(=O)CCn2c(=O)c3cccn3c3ccccc32)cc1`, the activation is inactive: -15%.

Regarding `CCOc1ccc(CCNC(=O)c2sc3nc4n(c(=O)c3c2C)CCCC4)cc1OCC`, the activation was inactive: -6.27%.

Take `O=C(C1CCN(S(=O)(=O)c2ccc(Br)s2)CC1)N1CCN(c2cccc(Cl)c2)CC1`: the activation is inactive: 28.3%.

With `COc1cc(C(=O)NCCCc2nc3ccccc3n2CC(C)C)cc(OC)c1OC`, the activation was inactive: 5.71%.

Regarding `Cc1ccc(Sc2c(C)nn(C(=O)COc3ccccc3Br)c2C)cc1`, the activation is inactive: -3.16%.

As for `Clc1ccc2c(c1)Nc1ccccc1S2`, the activation was inactive: 6.2%.

For `CCOC(=O)c1c(NC(=O)c2ccc(S(=O)(=O)N3CCC(C)CC3)cc2)sc2c1CCN(C)C2`, the activation is inactive: -18.5%.

Turning to `NC(=O)c1c(NC(=O)c2nc(SCc3ccccc3F)ncc2Cl)sc2c1CCCC2`, the activation is inactive: 20.2%.

As to `COc1ccc(-n2c(SCC(=O)Nc3ccc(Cl)c(C)c3)nc3n[nH]c(C)c3c2=N)cc1`, the activation was inactive: -8.32%.

In the case of `Cc1ccc2[nH]c(CSc3nnc(NC(=O)COc4ccccc4)s3)cc(=O)c2c1`, the activation is active: 75.8%.

With `O=C(Nc1nc2ccc(S(=O)(=O)N3CCCC3)cc2s1)c1cccc(F)c1`, the activation was inactive: -21.2%.

`Cc1cc(C)cc(-n2ccnc2SCC(=O)Nc2nnc(C)s2)c1`: the activation is inactive: 20.6%.

On to `CCOC(=O)c1sc2ncn(CC(=O)Nc3ccc(N(C)C)cc3)c(=O)c2c1C`, for which the activation was inactive: -6.04%.

With `CCOc1ccc2nc(N3CCCC(C(=O)Nc4c(C)cccc4C)C3)sc2c1` (configuration not stated), the activation was inactive: -7.56%.

For the molecule `CCS(=O)(=O)N1CCc2cc(C(=O)Nc3ccc(OC)c(Cl)c3)ccc21`, the activation is inactive: 12.3%.

In the case of `CCCCn1cc(S(=O)(=O)c2ccc(C)c(C)c2)c(=O)c2cc(F)c(N3CCCC(C)C3)cc21` (configuration not stated), the activation is inactive: -4.09%.

Regarding `COc1ccc(OC)c(CNC(=O)c2nn(-c3ccc(OC)c(Cl)c3)c(=O)c3c2c2ccccc2n3C)c1`, the activation is inactive: 10.8%.

With `CCOc1cc(C(=O)N2CC(=O)Nc3ccc(C)cc3C2c2ccccc2)cc(OCC)c1OCC` (configuration not stated), the activation was inactive: -1.79%.
